Test results: PubChem BioAssay AID1508624 (National Center for Advancing Translational Sciences (NCATS), 2021)
Among all 48,000 compounds or so, about 120 (0.25%) were called active. Another 4% or so got no clear call; they are omitted. Calls come from the whole dose curve; as a rule, active = well fitted activation curve with a large enough effect; inconclusive = small, poorly fitted or top-dose-only effect, or another doubt; inactive = no such curve, though single readings can be large or run the other way. The list shows a part of the results.

Assay: Primary qHTS for Identification of Small Molecule Activators of Huntingtin-Antisense Promoter Activity; note: nearly all actives have a fitted effect of over 55% in size
Conditions: HEK293 HTT-AS promoter firefly luciferase reporter, 24 h; series mostly up to 57.5 µM; activity change, positive = activation: at the top concentration
Summary of the method: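 Quantitative HTS used concentration series of up to 57.5 uM final on HEK293 luciferase reporter cells, 24 h at 37 degrees C. Readout was Dual-Glo firefly luminescence.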

Activity change, positive = activation, inactive:
CC(C)Cn1c(=O)c2ccccc2n2c(CCC(=O)Nc3cccc(Cl)c3)nnc12 -0.442%
CC(=O)c1cc(-c2ccccc2)n(CC(=O)NC2CCCCC2)c1C -7.51%
CCOc1ccccc1/C=C/c1onc(C)c1S(=O)(=O)N1CCC(C(=O)N(CC)CC)CC1 -38.5%
OC(CCN1CCCC1)(c1ccccc1)C1CCCCC1 (configuration not stated) -17%
O=C1Nc2c(c(=O)[nH]c(=O)n2-c2ccccc2)C1(NS(=O)(=O)c1ccc(Cl)cc1)C(F)(F)F (configuration not stated) -7.41%
CCCOc1ccc(-c2nn(-c3ccccc3)cc2C2NC(=O)NC(C)=C2C(=O)OC(C)C)cc1 (configuration not stated) -37.2%
Cc1ccc(NC(=O)Cn2c(=O)n(CCCCCC(=O)NCc3ccc(F)cc3)c(=O)c3sccc32)cc1C -6.84%
O=C(Cc1ccc(F)cc1)NC1CC(=O)N(c2ccccc2)C1 (configuration not stated) -12.6%
CCOc1ccc(Cn2nnc3c(=O)[nH]c(C4CCN(C(=O)c5ccccc5)CC4)nc32)cc1 -23.6%
COC(=O)c1ccc(NC(C)=O)cc1OC -5.19%
CCC(CC)c1nn2c(=O)cc(COc3ccc(NC(=O)c4ccccc4Cl)cc3)nc2s1 -15.4%
Cc1ccccc1CNC(=O)C1CCN(c2nn3cc(-c4ccc(F)cc4)nc3s2)CC1 17%
CC1CCCCN1CCCNC(=O)Cn1ncc2c([nH]c3ccccc32)c1=O (configuration not stated) -1.18%
Cc1cccc(CNS(=O)(=O)c2ccc3[nH]c(=O)ccc3c2)c1 -12.6%
COc1ccc(C)cc1NC(=O)c1cc(S(=O)(=O)NC2CCCCCC2)ccc1F -41.8%
COc1ccc(Cn2c(=O)[nH]c3cc(C(=O)N4CCN(c5cc(C)ccc5C)CC4)ccc3c2=O)cc1 -30%
CC(C)Oc1ccc(CNC(=O)CCCn2c(=O)c3cccn3c3ccccc32)cc1 -31.9%
COc1ccc(-c2cc(C(F)(F)F)c(C#N)c(SCC(=O)Nc3ccc(F)cc3)n2)cc1 -15.6%
Cc1ccc(S(=O)(=O)N2CCCc3cc(NS(=O)(=O)c4ccc(F)c(C)c4)ccc32)cc1 -45.2%
Cc1ccc(NCc2cccn2-c2nnc(N3CCC(C(=O)NC(C)C)CC3)s2)cc1 -37.8%
COc1ccc(NC(=O)Cn2c(=O)oc3cc(S(=O)(=O)NC4CCCC4)ccc32)cc1OC -24.1%
CCCNC(=O)c1ccc2c(c1)ncn2-c1ccc(C)cc1C -9.94%
Cn1c(N2CCCCS2(=O)=O)nc(C(=O)NCc2ccc(F)cc2)c(O)c1=O 5.81%
CCOC(=O)c1c(NC(=O)CS(=O)(=O)c2ccc(C)cc2)sc2c1CCCCC2 -23.6%
CCc1ccc(CNC(=O)c2ccc3c(c2)N=C(C)c2cc(C)ccc2S3)cc1 -27.9%
CC(CN(C)C)CN1c2ccccc2CCc2ccccc21 (configuration not stated) -15.2%
CCCC(O)C(CC)CO (configuration not stated) 0.245%
CN(C)CCNC(=O)c1ccc(-n2c(-c3ccccc3)cc3c2CCCC3)cc1 -4.12%
COP(=O)(OC)OC(c1ccc(Cl)cc1)P(=O)(OC)OC (configuration not stated) -9.55%
Cc1cc(C)cc(-n2nnc(-c3nc(-c4ccc5c(c4)OCO5)no3)c2C)c1 -2.04%
Cc1ccc(S(=O)(=O)C(CNC(=O)C(=O)NCc2ccc(Cl)cc2)c2cccs2)cc1 (configuration not stated) -40.6%
COc1cc2c(=O)n(CCC(=O)NCC3CCCO3)c(=O)n(CC(=O)Nc3ccc(C)cc3)c2cc1OC (configuration not stated) 12.6%
CCC(=O)N1c2ccc(S(=O)(=O)N3CCN(c4ccccc4)CC3)cc2CC1C (configuration not stated) -7.59%
CC(=O)c1ccc(NC(=O)c2cn3c4c(ccc(Cl)c4c2=O)OC(C)C3)cc1 (configuration not stated) -7.22%
Cc1ccc(C(=O)NCCn2c(C)cc3ccccc32)cc1C -41.3%
Nc1ccc2c(c1)CN1C(=O)c3ccccc3C1=N2 -51.8% [at 25.1 µM, percent change from vehicle, -100% = no light]
CC(Oc1ccc(F)cc1)C(=O)NCC1(N(C)C)CCCCC1 (configuration not stated) -3.28%
Cc1ccc(S(=O)(=O)c2cn(CC(=O)Nc3ccc(C)c(Cl)c3)c3ccc(C)cc3c2=O)cc1 -6.47%
Cc1c(NC(=O)c2ccc(OC(C)C)cc2)cccc1-c1nc2ncccc2o1 -1.97%
COc1cccc(C(=O)NCCSc2c(-c3ccc(F)cc3)[nH]c3ccccc23)c1OC -55.3%
O=C1CN(C(=O)c2ccc(S(=O)(=O)N3CCCCC3)cc2)C(c2ccc(F)cc2)c2cc(F)ccc2N1 (configuration not stated) -17.3%
Cc1ccc(CNC(=O)C2CCCN(S(=O)(=O)c3ccc4c(c3)oc(=O)n4C)C2)cc1 (configuration not stated) -13.9%
CCc1ccc(CNC(=O)CCSCc2ccccc2F)cc1 -2.78%
Cc1cccc(NS(=O)(=O)c2ccc3[nH]c(=O)ccc3c2)c1C -13.3%
COc1ccccc1OCCn1c(-c2ccc(Cl)cc2)nc2ccccc2c1=O -0.888%
Cc1oc2ccc(O)c(CN(C)Cc3ccccc3)c2c1C(=O)Nc1cccc(C(F)(F)F)c1 -55.6%
COc1ccc(C(=O)c2cn(CC(=O)Nc3ccc4c(c3)OCCO4)c3ccc(OC)cc3c2=O)cc1 -25.7%
COc1cc(NC(=O)Cn2c(=O)oc3cc(S(=O)(=O)N4CCCCCC4)ccc32)cc(OC)c1 -34.4%
O=C(CSc1nc(-c2ccccc2)no1)N1CCN(c2ccccc2F)CC1 -9.1%
COc1cccc(C2=CC(c3ccc(OC)c(OC)c3OC)n3ncnc3N2)c1 (configuration not stated) 3.1%
CCN(C(=O)Cc1nc(-c2ccc(OC)cc2)no1)c1cccc(Cl)c1 -24.1%
O=C(Cn1c(=O)nc(-c2ccccc2)c2ccccc21)Nc1ccc(Cl)c(C(F)(F)F)c1 -3.93%
Cc1nc(-c2ccccc2)sc1-c1ccc(SCC(=O)NCc2ccc(F)cc2)nn1 -7.68%
Cn1c(=O)c2c(SCC(=O)N3CCc4ccccc43)nc(-c3ccccc3Cl)nc2n(C)c1=O -4.92%
Cc1ccc(C(C)C)c(OCC(=O)Nc2cccc(NC(=O)c3ccco3)c2)c1 -46.8%
Cc1ccc(-c2nc3cccnc3s2)cc1NC(=O)C(C)C -1.08%
Cc1ccc(-c2ccc(=O)n(Cc3cc(C)ccc3C)n2)cc1 -38.5%
CC1=Nc2cc(C(=O)NCCc3ccc(Cl)cc3)ccc2Sc2ccc(C)cc21 -34.7%
CCC(CC)C(=O)NC1CC(=O)N(c2ccc3c(c2)OCCO3)C1 (configuration not stated) -17.9%
Clc1ccc(-c2nc3sccn3c2C=NOCc2ccc(Cl)c(Cl)c2)cc1 -6.5%
CCOc1ccc(-n2c(SCC(=O)N3CCCC3)nc3c([nH]c4ccccc43)c2=O)cc1 -10.7%
COC(=O)C(Cc1c[nH]c2ccccc12)NC(=O)COc1ccc(Cl)cc1Cl (configuration not stated) -24.3%
